In PubChem BioAssay AID686978 (National Center for Advancing Translational Sciences (NCATS), 2013):
“And” between values parts separate entries of the source, which are not always exact repeats. Identical values can stand only once. Out of some 420,000 compounds screened, about 64,000 (15%) were called active. Inconclusive means that the source gave no clear call. Such entries were picked first, then a sample of the others. The call rests on the fitted dose curve; in most records, active means well fitted inhibition curve with a large enough effect; inconclusive means small, poorly fitted or top-dose-only effect; inactive means flat fitted curve, though single readings scatter. Potencies of inconclusive entries are left out as doubtful fits.

Test: qHTS for Inhibitors of human tyrosyl-DNA phosphodiesterase 1 (TDP1): qHTS in cells in absence of CPT; further: nearly all actives have a fitted effect of over 55% in size
Conditions: DT40 Tdp1-/- hTDP1 cells, no CPT, ATP luminescence, 48 h; activity change, negative = growth inhibition: at 46.2 µM (top of the series) unless noted
Outline: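 No-CPT arm: Tdp1-/-;hTDP1 DT40 cells (400/well) plus compounds, incubated ≥48 hr at 37 °C. Readout CellTiter-Glo luminescence.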
On the % scale 0 is the no-effect control and ±100 the full control effect; potency means the concentration at half of the fitted maximal effect; tags describe the fitted curve by direction and shape.

Q: Which Potency does the source give for `CCCn1c2ccccc2c2cnn(CC(=O)NCCc3ccc(S(N)(=O)=O)cc3)c(=O)c21` here?
A: The Potency was inconclusive [inhibitor, single point].

Q: With `Cn1c(NCc2cccc(Cl)c2)nc2ccccc21` as the molecule, how does the Potency read?
A: The Potency was inconclusive [inhibitor, partial curve].

Q: For `CN(c1ccc(Br)cc1)S(=O)(=O)c1ccc2[nH]cc(C(=O)NCCN3CCOCC3)c(=O)c2c1`, which “activity change, negative = growth inhibition” value is on record?
A: Its value is inactive: 11.9%.

Q: For `CC(C)(C)OC(=O)N1Cc2cc3ccccc3nc2C1`, which Potency is on record?
A: Its Potency is inconclusive [inhibitor, single point].

Q: With `Nc1nc(CCl)nc(N(c2ccccc2)c2ccccc2)n1` as the molecule, how does the Potency read?
A: The Potency was inconclusive [inhibitor, single point].

Q: With `O=C(c1ccc2c(c1)OCO2)[C@@H]1[C@@H]2C(=O)N(C3CCCCC3)C(=O)[C@@H]2C2c3ccccc3C=CN21` (stereo partly drawn) as the molecule, how does the Potency read?
A: The Potency was active: 16.4 µM.

Q: For `Cc1ccc2c(c1)c1ncn(CCC3=CCCCC3)c(=O)c1n2C`, which Potency is on record?
A: The Potency was inconclusive [inhibitor, single point].

Q: For `Fc1ccccc1N1CCN(c2nc3ccccc3n3nnnc23)CC1`, which Potency is on record?
A: Its Potency is inconclusive [inhibitor, single point].

Q: For `CCN(C(=O)c1ccc(C(=O)N(CC)c2ccccc2C)cc1)c1ccccc1C`, which Potency is on record?
A: The Potency was active: 16.4 µM.

Q: With `CCOc1ccc(C(NC(=O)CC)c2c(O)ccc3ccccc23)cc1` (stereo not drawn) as the molecule, how does the Potency read?
A: Its Potency is inconclusive [inhibitor, single point].

Q: For `OC(c1ccc(F)cc1)c1nc(-c2cccc(F)c2)cs1` (stereo not drawn), which Potency is on record?
A: Its Potency is inconclusive [inhibitor, single point].

Q: For `COc1cc(-c2nnc(SC(C)C(=O)Nc3c(C)n(C)n(-c4ccccc4)c3=O)o2)cc(OC)c1OC` (stereo not drawn), which “activity change, negative = growth inhibition” value is on record?
A: The value was inactive: 0.0311%.

Q: With `CN(CC(=O)Nc1ccc(Cl)c(Cl)c1)Cc1nnc(-c2ccc(F)cc2)o1` as the molecule, how does the Potency read?
A: Its Potency is inconclusive [inhibitor, single point].

Q: Which Potency does the source give for `O=C1c2ccccc2C(=O)N1CCC(c1ccc(F)cc1)c1ccco1` (stereo not drawn) here?
A: Its Potency is inconclusive [inhibitor, single point].

Q: With `C=Cc1ccc(CN2C(=O)N(c3ccc(C)c(C)c3)S(=O)(=O)c3ccccc32)cc1` as the molecule, how does the Potency read?
A: Its Potency is inconclusive [inhibitor, single point].

Q: Which “activity change, negative = growth inhibition” value does the source give for `CCCn1cc(S(=O)(=O)c2ccccc2)c(=O)c2cc(OCC)ccc21` here?
A: The value was inactive: 0.502%.

Q: Which “activity change, negative = growth inhibition” value does the source give for `C/C(CC(=O)Nc1cccnc1)=N\NC(=O)C(C)Oc1ccc(Cl)cc1Cl` (stereo not drawn) here?
A: The value was inactive: -19.8%.

Q: With `CCOC(=O)C1CCCN(C(=O)c2ccc(-c3ccccc3Cl)o2)C1` (stereo not drawn) as the molecule, how does the Potency read?
A: Its Potency is inconclusive [inhibitor, single point].

Q: For `O=C(Cn1cc(SCc2ccccc2Cl)c2ccccc21)N1CCOCC1`, which Potency is on record?
A: Its Potency is inconclusive [inhibitor, single point].

Q: For `Brc1ccc(-c2csc3[n+]2CCCCC3)cc1`, which Potency is on record?
A: Its Potency is inconclusive [inhibitor, single point].

Q: Which Potency does the source give for `COc1ccccc1NC(=O)/C=C/c1ccc2c(c1)OCO2` here?
A: The Potency was inconclusive [inhibitor, single point].

Q: With `CCOC(=O)Cc1csc(NC(=O)CSc2nc3cccnc3n2CC)n1` as the molecule, how does the Potency read?
A: Its Potency is inconclusive [inhibitor, partial curve].

Q: With `CCOC(=O)c1c(-c2cccs2)csc1NC(C)=O` as the molecule, how does the Potency read?
A: The Potency was inconclusive [inhibitor, single point].

Q: With `CCc1nc(C)ccc1OC(=O)C12CC3CC(CC(C3)C1)C2` as the molecule, how does the Potency read?
A: Its Potency is inconclusive [inhibitor, partial curve].

Q: For `Cc1cc(/C=C2/C(=N)N3C(=NC2=O)SN=C3S(C)(=O)=O)c(C)n1-c1ccccc1`, which “activity change, negative = growth inhibition” value is on record?
A: Its value is inactive: -18.8%.

Q: With `COc1ccc(OC2CCN(S(=O)(=O)c3ccc(OC)c(OC)c3)CC2)cc1` as the molecule, how does the Potency read?
A: The Potency was inconclusive [inhibitor, single point].

Q: Which Potency does the source give for `COc1ccc(NC(=O)CN(C)CC(=O)Nc2cccc(F)c2)cc1S(=O)(=O)N1CCCCC1` here?
A: Its Potency is inconclusive [inhibitor, single point].

Q: With `CCS(=O)(=O)c1ncc(Cl)c(C(=O)Nc2ccc(S(=O)(=O)N(C)c3ccccc3)cc2)n1` as the molecule, how does the Potency read?
A: The Potency was active: 1.03 µM and active: 651 nM.

Q: With `Cc1ccc(/C=C/c2onc(C)c2S(=O)(=O)N2CCC(C(=O)N3CCN(C)CC3)CC2)cc1` as the molecule, how does the Potency read?
A: The Potency was active: 23.1 µM.

Q: Which “activity change, negative = growth inhibition” value does the source give for `CC(C)c1ccc(NS(=O)(=O)c2cn(C)c(=O)n(C)c2=O)cc1` here?
A: Its value is inactive: -14.9%.

Q: With `CCOC(=O)CNC(=O)N1CCCC(CNS(=O)(=O)Cc2ccccc2)C1` (stereo not drawn) as the molecule, how does the “activity change, negative = growth inhibition” value read?
A: The value was inactive: 3.99%.

Q: For `CC(=O)N1CCN(CCS(=O)(=O)c2cc(Cl)ccc2Cl)CC1`, which Potency is on record?
A: Its Potency is inconclusive [inhibitor, single point].

Q: For `Cc1nn(-c2ccc(N3CCOCC3)nn2)c(C)c1CCC(=O)NCc1ccc(Cl)cc1`, which “activity change, negative = growth inhibition” value is on record?
A: Its value is inactive: -18.3%.

Q: Which Potency does the source give for `CC1CCCCN1CCNC(=O)c1ccc(Cn2c(SCc3ccccc3)nc3cccnc32)cc1` (stereo not drawn) here?
A: Its Potency is inconclusive [inhibitor, single point].

Q: For `C#Cc1ccc([C@@H]2C=C(C(=O)OCC=C)O[C@H](OCC)[C@H]2CCCO)cc1`, which Potency is on record?
A: Its Potency is inconclusive [inhibitor, single point].

Q: With `O=C1C=C(c2ccccc2)CCC1` as the molecule, how does the “activity change, negative = growth inhibition” value read?
A: The value was inactive: -7.87%.

Q: Which Potency does the source give for `COc1ccc2c(c1)OC[C@H]1[C@H]2N2C(=O)CN(Cc3ccccc3)C(=O)[C@@]2(C)[C@H]1c1ccccc1` here?
A: The Potency was inconclusive [inhibitor, single point].

Q: For `CCOc1ccc(C2C=C(c3ccccc3)Nc3nnnn32)cc1` (stereo not drawn), which Potency is on record?
A: Its Potency is inconclusive [inhibitor, single point].

Q: With `c1ccc(-n2ncc3c(N4CCC5(CC4)OCCO5)ncnc32)cc1` as the molecule, how does the Potency read?
A: The Potency was inconclusive [inhibitor, single point].

Q: For `CC(C)NCCCOc1ccc(Cl)cc1Br`, which Potency is on record?
A: Its Potency is inconclusive [inhibitor, single point].

Q: Which Potency does the source give for `Cc1ccc(CC(=O)Nc2ncc([N+](=O)[O-])s2)cc1` here?
A: Its Potency is inconclusive [inhibitor, single point].

Q: For `COc1cc(C(=O)N2C[C@H]3CON(C)[C@H]3C[C@H]2c2ccc(N3CCCCC3)cc2)cc(OC)c1OC`, which “activity change, negative = growth inhibition” value is on record?
A: Its value is inactive: 4%.

Q: With `O=C(Nc1ccc2oc(-c3ccc4ccccc4c3)nc2c1)c1cccs1` as the molecule, how does the Potency read?
A: Its Potency is active: 23.1 µM.

Q: Which “activity change, negative = growth inhibition” value does the source give for `O=C(NC(=S)N1CCCC1)c1ccccc1F` here?
A: The value was inactive: -16.5%.

Q: Which Potency does the source give for `O=C(NCC(=O)N1CCC(Cc2ccccc2)CC1)c1ccc(Cl)cc1` here?
A: The Potency was inconclusive [inhibitor, single point].

Q: For `CCOC(=O)c1c(C)[nH]c(C(=O)CSc2nnc(-c3cccs3)n2Cc2ccccc2)c1C`, which Potency is on record?
A: Its Potency is inconclusive [inhibitor, single point].

Q: For `N#CCCn1cc(C(=O)O)c(-c2ccc3ccccc3c2)n1`, which “activity change, negative = growth inhibition” value is on record?
A: The value was inactive: 0.983%.

Q: Which Potency does the source give for `O=C(Cc1ccc(Cl)cc1)Nc1ccc(N2CCN(C(=O)c3ccco3)CC2)cc1` here?
A: Its Potency is inconclusive [inhibitor, partial curve].

Q: Which “activity change, negative = growth inhibition” value does the source give for `C=CCOc1ccc2ccccc2c1CNc1ncn[nH]1` here?
A: The value was inactive: -12.6%.

Q: With `COc1ccc(C2CC(c3cccs3)=Nc3ccccc3S2)cc1OC` (stereo not drawn) as the molecule, how does the Potency read?
A: The Potency was inconclusive [inhibitor, partial curve].

Q: Which Potency does the source give for `N#C/C(=N\Nc1ccccc1)C(N)=S` here?
A: Its Potency is inconclusive [inhibitor, single point].

Q: With `O=C(Cn1c(=O)n(-c2ccccc2)c(=O)n1CC(=O)N1CCCCC1)N1CCCCC1` as the molecule, how does the “activity change, negative = growth inhibition” value read?
A: Its value is inactive: 7.62%.

Q: Which Potency does the source give for `C/C(=N\NC(=O)COc1ccc(C(C)(C)C)cc1)c1ccc(-n2ccnc2)cc1` here?
A: Its Potency is inconclusive [inhibitor, single point].

Q: With `Cc1onc(-c2ccccc2Cl)c1C(=O)Nc1nnc(C2CCCCC2)s1` as the molecule, how does the Potency read?
A: Its Potency is inconclusive [inhibitor, single point].

Q: Which Potency does the source give for `Nc1ncnc2c1ncn2[C@@H]1O[C@H](CNCc2ccc(-c3cc(C(F)(F)F)ccc3Cl)o2)[C@@H](O)[C@H]1O` here?
A: The Potency was inconclusive [inhibitor, single point].

Q: For `COc1ccc(NS(=O)(=O)c2cccc(C(=O)NCC(c3ccccc3)N(C)C)c2)cc1` (stereo not drawn), which “activity change, negative = growth inhibition” value is on record?
A: The value was inactive: -20.7%.

Q: Which Potency does the source give for `Cc1cccc(C)c1Nc1sc(C(=O)c2ccccc2)c(N)c1S(=O)(=O)c1ccccc1` here?
A: The Potency was active: 3.66 µM.

Q: Which Potency does the source give for `CCN(CC)Cc1c(O)ccc2c(=O)c(-c3ccccc3)coc12` here?
A: Its Potency is inconclusive [inhibitor, partial curve, poor fit].

Q: With `CC(C)C(NCc1c(Cl)cccc1Cl)C(=O)O` (stereo not drawn) as the molecule, how does the “activity change, negative = growth inhibition” value read?
A: The value was inactive: 2.96%.

Q: For `CN(C(=O)c1ccc(NC(=O)C2CCCN(C(=O)OC(C)(C)C)C2)cc1)C1CCCCC1` (stereo not drawn), which Potency is on record?
A: The Potency was inconclusive [inhibitor, single point].

Q: Which Potency does the source give for `Cc1cccc(OCC(=O)N=Nc2c(O)[nH]c3ccc([N+](=O)[O-])cc23)c1` here?
A: Its Potency is inconclusive [inhibitor, single point].

Q: With `COc1ccc(N2C(=O)c3ccccc3NC2c2ccc(OC)c(COc3ccccc3F)c2)cc1` (stereo not drawn) as the molecule, how does the Potency read?
A: Its Potency is inconclusive [inhibitor, single point].

Q: Which “activity change, negative = growth inhibition” value does the source give for `Cc1ccc(/C=N/NC(=O)c2ccc(NC(=O)c3ccc(Cl)cc3)cc2)o1` here?
A: Its value is inactive: 3.63%.

Q: With `Cc1cc(Nc2ccccc2C)c2cccc(C)c2n1` as the molecule, how does the Potency read?
A: Its Potency is inconclusive [inhibitor, single point].

Q: With `CN(Cc1ccccc1Cl)C(=O)CNC(=O)C12CC3CC(CC(C3)C1)C2` as the molecule, how does the Potency read?
A: The Potency was inconclusive [inhibitor, single point].

Q: Which Potency does the source give for `O=C1N[C@@H](Cc2ccccc2)C(=O)N2[C@@H]3N(S(=O)(=O)c4ccc(F)cc4)c4ccccc4[C@]3(Br)C[C@@H]12` here?
A: The Potency was inconclusive [inhibitor, single point].

Q: With `Cc1cc(S(=O)(=O)N2CCOCC2)ccc1OCC(=O)Nc1ccc(F)c(Cl)c1` as the molecule, how does the “activity change, negative = growth inhibition” value read?
A: The value was inactive: -19.5%.

Q: With `CCOC(=O)N1CCN(C(=O)c2oc3ccc(S(=O)(=O)N4CCOCC4)cc3c2C)CC1` as the molecule, how does the “activity change, negative = growth inhibition” value read?
A: Its value is inactive: -26.7%.
